Data on 54 compounds can be found in PubChem BioAssay AID588579 (National Center for Advancing Translational Sciences (NCATS), 2011).

Screen size: about 400,000 compounds; about 2,200 (0.55%) were called active. Another 1% or so got no clear call; they are omitted. The call rests on the fitted dose curve; in most records, active means well fitted inhibition curve with a large enough effect; inconclusive means small, poorly fitted or top-dose-only effect, or another doubt; inactive means no such curve, though single readings can be large or run the other way. This is a selection; strong and weak results do not stand in their true shares. The source holds several records for some structures; these can differ, active in one and inactive in another. Positions of bridges follow the written chain, without caps; N, C: chain ends. Residues, ends and D or L forms follow the SMILES beside them.
On the % scale 0 is the no-effect control and ±100 the full control effect; potency means the concentration at half of the fitted maximal effect.

Sequence of UniProt Q9UBT6 (Q9UBT6 whole entry, looked up): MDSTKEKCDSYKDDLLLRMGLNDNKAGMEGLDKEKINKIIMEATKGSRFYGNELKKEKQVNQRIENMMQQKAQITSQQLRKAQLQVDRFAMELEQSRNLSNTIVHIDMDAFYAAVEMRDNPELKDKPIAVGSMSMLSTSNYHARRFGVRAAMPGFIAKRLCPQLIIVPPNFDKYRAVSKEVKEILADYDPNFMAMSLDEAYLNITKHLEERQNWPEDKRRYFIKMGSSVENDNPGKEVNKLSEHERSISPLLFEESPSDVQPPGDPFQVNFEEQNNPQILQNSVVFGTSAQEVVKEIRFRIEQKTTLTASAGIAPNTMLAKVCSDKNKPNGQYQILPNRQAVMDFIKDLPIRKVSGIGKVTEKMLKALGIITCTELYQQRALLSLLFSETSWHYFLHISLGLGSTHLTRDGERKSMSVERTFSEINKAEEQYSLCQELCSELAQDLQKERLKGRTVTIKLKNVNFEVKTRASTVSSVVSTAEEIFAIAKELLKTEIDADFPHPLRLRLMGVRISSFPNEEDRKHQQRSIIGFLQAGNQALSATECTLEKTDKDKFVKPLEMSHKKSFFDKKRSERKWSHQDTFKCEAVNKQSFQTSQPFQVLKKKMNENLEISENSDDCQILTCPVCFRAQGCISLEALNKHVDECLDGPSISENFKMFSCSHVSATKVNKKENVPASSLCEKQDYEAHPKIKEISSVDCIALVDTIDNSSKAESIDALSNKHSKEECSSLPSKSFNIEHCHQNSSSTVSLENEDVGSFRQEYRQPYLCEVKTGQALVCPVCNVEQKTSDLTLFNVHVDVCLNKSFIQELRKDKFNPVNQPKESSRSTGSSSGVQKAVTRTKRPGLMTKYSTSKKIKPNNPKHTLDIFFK

In the assay the target is DNA polymerase kappa (Homo sapiens) (UniProt Q9UBT6). The experiment in a line: qHTS for Inhibitors of Polymerase Kappa. Conditions: purified Pol kappa, fluorescent DNA synthesis assay, 10 min; series mostly up to 107 µM; activity, negative = inhibition: at the top concentration. In a few lines:
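Inhibition of 10 nM Pol kappa is measured by a fluorescent read-out at 0 and 10 min following addition of 50 nM substrate (final), with a 15-min room-temperature compound preincubation.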
(In general: Quantitative high-throughput screening tests each substance at several concentrations.)
With `COc1[nH]c(/N=C/c2ccccc2)c(C#N)c1C#N`, the “activity, negative = inhibition” value is inactive: -12%.
In the case of `CN1CCN(C2Cc3ccccc3Sc3ccc(Cl)cc32)CC1` (centres undefined), the Potency result is “inactive”.
On the same count and under the same terms, the value for `O=C(O)c1cccc(Cn2c(Cl)c(/C=N/NC(=O)c3cc4ccccc4cc3O)sc2=O)c1` was active: 31.6 µM.
Still for that read-out and setting: the value for `CCC(c1ccc(O)c(O)c1)C(CC)c1ccc(O)c(O)c1` (centres undefined) was active: 50.1 µM.
Regarding `COc1ccccc1C1CC(=O)Oc2c(C(C)C)ccc(C)c21` (centres undefined), the “activity, negative = inhibition” value is inactive: -13.2%.
Consider `C[C@@H](C(=O)O)c1cccc(C(=O)c2ccccc2)c1`, for which the activity, negative = inhibition is inactive: -7.07% [at 12 µM].
Take `C=CC1=C(C(=O)O)N2C(=O)[C@@H](NC(=O)/C(=N\OCC(=O)O)c3csc(N)n3)[C@@H]2SC1`: the activity, negative = inhibition is inactive: -11.7% [at 19.4 µM].
Turning to `CCOC(=O)N(O)c1ccc(C=Cc2ccccc2)cc1`, the Potency was active: 79.4 µM.
Turning to `Cc1nnc(SCC2=C(C(=O)O)N3C(=O)C(NC(=O)Cn4nc(C(F)F)c(Cl)c4C)C3SC2)s1` (centres undefined), the Potency was active: 50.1 µM.
As for `CSCC[C@H](NC(=O)[C@H](CC(C)C)NC(=O)CNC(=O)[C@H](Cc1ccccc1)NC(=O)[C@H](Cc1ccccc1)NC(=O)[C@H](CCC(N)=O)NC(=O)[C@H](CCC(N)=O)NC(=O)[C@@H]1CCCN1C(=O)[C@H](CCCCN)NC(=O)[C@@H]1CCCN1C(=O)[C@@H](N)CCCN=C(N)N)C(N)=O`, the “activity, negative = inhibition” value was inactive: 13.6% [at 60.1 µM].
For `CC(=O)N[C@@H](Cc1c[nH]c2ccccc12)C(=O)OCc1cc(C(F)(F)F)cc(C(F)(F)F)c1`, the Potency result is “inactive”.
`Cc1ccc(CNC(=O)CCc2c(C)nn(-c3ccc(N4CCCC4)nn3)c2C)cc1`: the “activity, negative = inhibition” value is inactive: 39%.
Turning to `CC(=O)Nc1c(N)[nH]c(=O)n(C)c1=O`, the “activity, negative = inhibition” value is inactive: 11.5% [at 60.1 µM].
As to `N[C@@H](CO)C(=O)O`, the activity, negative = inhibition was inactive: -7.49% [at 19.4 µM].
For `c1coc(-c2nc3cc4ccccc4cc3nc2-c2ccco2)c1`, the Potency was active: 39.8 µM.
`OCCN1CCN(CC/C=C2\c3ccccc3Sc3ccc(C(F)(F)F)cc32)CC1`: the activity, negative = inhibition is inactive: -8.78% [at 12 µM].
On the same count and under the same terms, the value for `CCC(/C=C1\Sc2ccc(OC)cc2N1CCO)=C\c1sc2ccc(OC)cc2[n+]1CCO` was inactive: 1.06% [at 60.1 µM]; that for `COC(=O)C1C(O)CCC2CN3CCc4c([nH]c5ccccc45)C3CC21` (centres undefined) was inactive: -7.28%; that for `CCOC(=O)C1=C(C)c2ccccc2OC1C(=O)OCC` (centres undefined) was inactive: -11.1%.
On the same count and under the same terms, the value for `CC(C)[C@H](NC(=O)OCc1ccccc1)C(=O)OCC(=O)NCc1ccco1` was inactive: -24.8%.
The same measure, in the same setting: the value for `C[C@@H]1CCC[C@]2(C)CCCC[C@@]12O` was inactive: 18.6% [at 60.1 µM].
As to `CC(C)[C@H](NC(=O)[C@@H]1CSSC[C@H](NC(=O)[C@H](CC(=O)O)NC(=O)[C@H](C)NC(=O)[C@@H](NC(=O)CNC(=O)[C@H](C)N)[C@@H](C)O)C(=O)N[C@@H](Cc2ccccc2)C(=O)N[C@@H](Cc2c[nH]c3ccccc23)C(=O)N[C@@H](CCCCN)C(=O)N[C@@H](Cc2ccc(O)cc2)C(=O)N1)C(=O)O` (H-AGTADCFWKYCV-OH; disulfide 6-11), the “activity, negative = inhibition” value was inactive: 16.4% [at 60.1 µM].
Regarding `C[C@H]1CCC[C@@]2(C)CCCC[C@]12O`, the “activity, negative = inhibition” value is inactive: 9.76% [at 60.1 µM].
As to `CCOC(=O)c1ccc(NC(=O)c2cc3c(n(-c4ccc(C)cc4)c2=O)CC(C)(C)CC3=O)cc1`, the Potency was active: 89.1 µM.
Take `CC1CN(C(=O)c2cc(-c3ccncc3)nc3ccccc23)CC(C)O1` (centres undefined): the “activity, negative = inhibition” value was inactive: 28%.
Regarding `COc1cccc2oc(-c3ccccc3)cc(=O)c12`, the Potency result was “inactive”.
As to `COc1cc(NCc2ccc3nc(N)nc(N)c3c2C)cc(OC)c1OC`, the activity, negative = inhibition is inactive: -8.38% [at 19.4 µM].
With `COc1ccc(-c2ccc([C@H]3[C@H]4C=CC[C@@H](C)[C@@H]4C(=O)N3Cc3ccccc3)c(F)c2)cc1C`, the “activity, negative = inhibition” value was inactive: -2.52%.
`C1=Cc2ccccc2/C1=C\c1cc[cH-]c1.[Fe+2].c1cc[cH-]c1`: the Potency was active: 1.12 µM.
On to `C[C@](N)(Cc1ccc(O)c(O)c1)C(=O)O`, for which the activity, negative = inhibition was inactive: -9.93% [at 19.4 µM].
As to `COc1cc(O)c(C(CC(=O)N2CCCC2)c2cc(OC)c(OC)c(OC)c2)c(OC)c1` (centres undefined), the “activity, negative = inhibition” value was inactive: 10.2%.
As for `CN(C)[C@@H]1C(=O)C(C(N)=O)=C(O)[C@]2(O)C(=O)C3=C(O)c4c(O)ccc(Cl)c4[C@H](O)[C@H]3C[C@@H]12`, the activity, negative = inhibition was inactive: -2.8% [at 12 µM].
For `CSc1cc2c(cc1C(F)(F)F)N(C(=O)Nc1cccnc1)CC2`, the Potency entry is “inactive”.
On to `CCCCN(C(=O)c1cc2c(s1)CCC2)c1c(N)n(CC(C)C)c(=O)[nH]c1=O`, for which the Potency was active: 79.4 µM.
As for `CC(=O)Oc1ccccc1C(=O)O`, the Potency result was “inactive”.
For `CCOc1cc(/C=N/NC(=O)c2ccc(-c3csc(Nc4ccc(C)cc4)n3)cc2)ccc1OCC(=O)O`, the Potency was active: 31.6 µM.
As for `CCOC(=O)[C@@H]1[C@H]2COc3cc(OC)ccc3[C@@H]2N2C(=O)N(c3cccc(F)c3)C(=O)[C@]12C`, the “activity, negative = inhibition” value was inactive: -4.65%.
`O=C(Nc1cccc(Cl)c1)OCC#CCCl`: the Potency is active: 26.7 µM.
Consider `O=C(O)c1cc(=O)c2cc(Cl)ccc2[nH]1`, for which the “activity, negative = inhibition” value is inactive: 17.8% [at 60.1 µM].
With `CC1=C(/C=C/C(C)=C/C=C/C(C)=C/C(=O)O)C(C)(C)CCC1`, the Potency entry was “inactive”.
As to `O=C1NC(=Nc2ccccc2)S/C1=C\C=C\c1ccco1`, the Potency is active: 20 µM.
For `CC(OC(=O)/C(C#N)=C/c1ccc(N(C)C)cc1)C(=O)N(C)c1ccccc1` (centres undefined), the Potency was active: 79.4 µM.
Turning to `COc1ccc(S(=O)(=O)/N=C2/NC(=O)/C(=C/c3ccco3)S2)cc1`, the “activity, negative = inhibition” value is inactive: -10.5%.
As for `CCCCCCCCCCCCCCCC(O)C(N)CO` (centres undefined), the “activity, negative = inhibition” value is inactive: 9.66%.
Turning to `COC(=O)[C@@H]1OC(c2ccccc2)O[C@H]1C(=O)OC`, the “activity, negative = inhibition” value was inactive: 19.4% [at 60.1 µM].
As to `Cc1cc(C)c2c(c1)C1C=CCC1C(C(=O)O)N2` (centres undefined), the Potency is active: 28.2 µM.
`COc1cc(OC)c2c(-c3cccc(-c4cccc(C)c4)c3)cc(=O)oc2c1`: the “activity, negative = inhibition” value is inactive: -6.9%.
Regarding `CCCCCC1=C(C(=O)OC)C(C(=O)OCC)N(S(=O)(=O)C(F)(F)F)c2ccccc21` (centres undefined), the “activity, negative = inhibition” value was inactive: -0.994%.
As for `Cc1cccc(NC(=O)CC2Nc3cccc4cccc(c34)NC2=O)c1` (centres undefined), the “activity, negative = inhibition” value was inactive: -24.7%.
In the case of `Cc1nc2ccn(Cc3cccnc3)c(=O)c2cc1C(=O)N1CCN(c2ccccc2F)CC1`, the “activity, negative = inhibition” value was inactive: 28.1%.
For the compound `O=C1OCCN1C(=O)[C@H]1[C@H](c2ccc(F)cc2)C(c2cccc(Cl)c2)=NN1c1ccccc1`, the “activity, negative = inhibition” value was inactive: 0.846%.
Regarding `COc1ccc(NC(=O)/C=C/c2ccc(Br)o2)cn1`, the Potency was active: 79.4 µM.
`O=C(N/N=C/c1ccc(Sc2ccccn2)o1)c1cc2ccccc2cc1O`: the Potency is active: 28.2 µM.
Regarding `CC1(C)S[C@@H]2[C@H](NC(=O)[C@@H](N)c3ccc(O)cc3)C(=O)N2[C@H]1C(=O)O`, the activity, negative = inhibition was inactive: -4.4% [at 12 µM].
